Measurements reported in the supplement of paper PMC10441789.
This is one part of the list. Antibody binding of pooled human sera (four to six donors per pool; dilution not stated) to peptides of the Trypanosoma cruzi antigen TSSA on microarrays. Quantile-normalised fluorescence in arbitrary units, mean of duplicate arrays; higher = more binding. No active / inactive call. The uninfected pools are read here as the healthy donors of the same country. The strongest signals lie near the top of the scale (about 60,000).

The sequences below were run on pooled sera of uninfected people, Colombia (assay: antibody binding signal (normalised fluorescence) (arbitrary fluorescence units); higher = stronger serum antibody binding to peptide).
Experimental: (§1)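 Microarray of 15-residue peptides over residues 30-55 of Trypanosoma cruzi TSSAII, each with 1 to 10 substitutions at naturally variable positions, probed with one serum pool per country.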

| Sequence | antibody binding signal |
| --- | --- |
| KKTAAGETPSQPGAS | 457 |
| GTEKKAAAGETPSQS | 923 |
| KENKTATGETPSPPG | 163 |
| EKKTATGGTPSQSGA | 971 |
| TDNKTATGGAPSPSG | 176 |
| PSGTENKTAAGGAPS | 593 |
| GKDKKTAAGEAPSQS | 233 |
| TPPSGTEKKTAAGEA | 153 |
| TISTPPSGKENKTAA | 724 |
| SSTPPSGKEKKPAAG | 303 |
| TENKAAAGGTPSPSG | 442 |
| TENKAAAGETPSPSG | 108 |
| KENKPATGGAPSQPG | 120 |
| KENKPAAGETPSQSG | 254 |
| SSTPPSGKEKKTATG | 222 |
| GTDKKTATGGTPSPS | 683 |
| PSGTEKKPATGGTPS | 250 |
| TEKKAATGETPSQPG | 652 |
| TENKPAAGEAPSPSG | 80.1 |
| EKKAATGEAPSQPGA | 664 |

| Sequence | antibody binding signal |
| --- | --- |
| GTENKAATGETPSQP | 133 |
| GTEKKPATGEAPSPP | 242 |
| PPSGTEKKTAAGEAP | 711 |
| GTENKPATGETPSPP | 195 |
| SSTPPSGKEKKAAAG | 214 |
| GKENKTATGGAPSQP | 141 |
| EKKTAAGGAPSQSGA | 177 |
| KPATGGTPSQSGASS | 174 |
| GKDNKAAAGEAPSPS | 165 |
| TSSTPPSGKEKKPAA | 292 |
| TSSTPPSGKDKKAAA | 151 |
| NKAATGETPSQPGAS | 592 |
| SGKDNKPAAGEAPSQ | 585 |
| TDKKPAAGETPSPSG | 166 |
| PSGTENKAATGGAPS | 486 |
| EKKPATGGTPSPPGA | 285 |
| DNKPATGETPSPSGA | 189 |
| SGKDNKPAAGGTPSP | 870 |
| KKPATGETPSPSGAS | 136 |

These sequences were tested on pooled sera of uninfected people, Mexico in the same assay as above.
Experimental: as §1

| Sequence | antibody binding signal |
| --- | --- |
| KKTAAGETPSQPGAS | 97 |
| GTEKKAAAGETPSQS | 166 |
| KENKTATGETPSPPG | 158 |
| EKKTATGGTPSQSGA | 359 |
| TDNKTATGGAPSPSG | 260 |
| PSGTENKTAAGGAPS | 773 |
| GKDKKTAAGEAPSQS | 85.2 |
| TPPSGTEKKTAAGEA | 174 |
| TISTPPSGKENKTAA | 274 |
| SSTPPSGKEKKPAAG | 152 |
| TENKAAAGGTPSPSG | 144 |
| TENKAAAGETPSPSG | 300 |
| KENKPATGGAPSQPG | 120 |
| KENKPAAGETPSQSG | 286 |
| SSTPPSGKEKKTATG | 116 |
| GTDKKTATGGTPSPS | 110 |
| PSGTEKKPATGGTPS | 390 |
| TEKKAATGETPSQPG | 303 |
| TENKPAAGEAPSPSG | 119 |
| EKKAATGEAPSQPGA | 315 |

| Sequence | antibody binding signal |
| --- | --- |
| GTENKAATGETPSQP | 150 |
| GTEKKPATGEAPSPP | 468 |
| PPSGTEKKTAAGEAP | 173 |
| GTENKPATGETPSPP | 1790 |
| SSTPPSGKEKKAAAG | 81.6 |
| GKENKTATGGAPSQP | 189 |
| EKKTAAGGAPSQSGA | 291 |
| KPATGGTPSQSGASS | 374 |
| GKDNKAAAGEAPSPS | 80.2 |
| TSSTPPSGKEKKPAA | 75.1 |
| TSSTPPSGKDKKAAA | 92.2 |
| NKAATGETPSQPGAS | 290 |
| SGKDNKPAAGEAPSQ | 401 |
| TDKKPAAGETPSPSG | 224 |
| PSGTENKAATGGAPS | 683 |
| EKKPATGGTPSPPGA | 155 |
| DNKPATGETPSPSGA | 1840 |
| SGKDNKPAAGGTPSP | 197 |
| KKPATGETPSPSGAS | 457 |
